Laboratory results reported in the supplement of paper PMC8728848.
Shown is part of a subset that was picked to be rich in the strongest signals.

What was measured:
Assay in all cases: glycan array binding signal (z-score within array); higher = stronger binding
Settings in all cases: glycan notation: IUPAC condensed, linker removed
[1] = test system: Gal(b1-4)GlcNAc
Outline: (§1)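 The binding signal is a Z-score computed within each array. Data were drawn from 3228 arrays in the Consortium for Functional Glycomics database, restricted to those with a known protein sequence. Scores were averaged over arrays of the same protein sequence at different concentrations or buffers, and over linkers, and negative values can be taken as non-binding.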

[2] = test system: Gal3S(b1-3)GlcNAc
Outline: as §1

[3] = test system: Gal3S(b1-3)[Fuc(a1-4)]GlcNAc
Outline: as §1

[4] = test system: Gal(b1-4)GlcNAc(b1-6)[Gal(b1-3)]GalNAc
Outline: as §1

[5] = test system: Gal3S(b1-3)GalNAc
Outline: as §1

[6] = test system: Gal(b1-4)GlcNAc(b1-6)Gal(b1-4)GlcNAc
Outline: as §1

[7] = test system: Gal(b1-4)Glc
Outline: as §1

[8] = test system: Gal(b1-4)GlcNAc(b1-6)GalNAc
Outline: as §1

[9] = test system: Gal(b1-4)GlcNAc(b1-6)[Gal(b1-3)]GlcNAc
Outline: as §1

[10] = test system: Gal(b1-4)GlcNAc6P
Outline: as §1

**Q.** With “M-Ficolin (Homo sapiens) (chain not printed)” as the substance, how does the “glycan array binding signal (z-score)” value [1] read?
**A.** -0.285

**Q.** What about the “glycan array binding signal (z-score)” value [2] of the same substance?
**A.** -0.011

**Q.** How did the “glycan array binding signal (z-score)” value [3] turn out when “STIM-3 (Mus musculus) (chain not printed)” was run?
**A.** 3.34

**Q.** What does the source list for “Gal 8 long (Homo sapiens) (chain not printed)”?
**A.** glycan array binding signal (z-score) [4]: -0.33; glycan array binding signal (z-score) [3]: -0.334

**Q.** Which “glycan array binding signal (z-score)” value [4] does the source give for “Galectin-8 C-terminal CRD (Homo sapiens) (chain not printed)” here?
**A.** -0.348

**Q.** What about the “glycan array binding signal (z-score)” value [5] of the same substance?
**A.** 0.203

**Q.** How did the “glycan array binding signal (z-score)” value [6] turn out when “NCAM1 (Homo sapiens) (chain not printed)” was run?
**A.** -0.082

**Q.** “M-Ficolin G221F (Homo sapiens) (chain not printed)” was tested. Which “glycan array binding signal (z-score)” value [7] did it give?
**A.** -0.161

**Q.** “Thrombomodulin Extracellular (Homo sapiens) (chain not printed)” was tested. Which “glycan array binding signal (z-score)” value [6] did it give?
**A.** -0.428

**Q.** What about the “glycan array binding signal (z-score)” value [1] of the same substance?
**A.** -0.149

**Q.** And the “glycan array binding signal (z-score)” value [7]?
**A.** 0.236

**Q.** And the “glycan array binding signal (z-score)” value [3]?
**A.** -0.41

**Q.** “Collectin K1 (Homo sapiens) (chain not printed)” was tested. Which “glycan array binding signal (z-score)” value [1] did it give?
**A.** -0.202

**Q.** For “Angiogenin (Homo sapiens) (chain not printed)”, which “glycan array binding signal (z-score)” value [2] is on record?
**A.** -0.271

**Q.** What does the source list for “H-Ficolin (Homo sapiens) (chain not printed)”?
**A.** glycan array binding signal (z-score) [8]: -0.247; glycan array binding signal (z-score) [9]: -0.73

**Q.** How did the “glycan array binding signal (z-score)” value [5] turn out when FGF2 (chain not printed) was run?
**A.** -0.441

**Q.** What about the “glycan array binding signal (z-score)” value [3] of the same substance?
**A.** 0.658

**Q.** For “Gal 8-short (Homo sapiens) (chain not printed)”, which “glycan array binding signal (z-score)” value [5] is on record?
**A.** 1.77

**Q.** Which “glycan array binding signal (z-score)” value [6] does the source give for “L-Ficolin (Homo sapiens) (chain not printed)” here?
**A.** -0.467

**Q.** With “Gal 3 (Homo sapiens) (chain not printed)” as the substance, how does the “glycan array binding signal (z-score)” value [8] read?
**A.** -0.222

**Q.** And the “glycan array binding signal (z-score)” value [10]?
**A.** -0.174
